The source gives no read counts; variants with many changes may rest on few reads.
B1: OR4K15 (parent)
chain: GUUAACGGUCAUAGGCCAUGGAAACUAGGAGCACCAUUUCGCUGCCAGUGAAGAAAUGAACAAAGAAAAUCUGGGCCAGGCAGGCAUCAAAAGAAAUAGUCUUGCGCUCAACCAGAAAGUCUGUAAUCAUUUUAAGGGUA

Variants of: B1
Assay: self-cleavage, relative activity (ratio to wild type); higher = more cleavage; in vitro, sequencing; the parent is a self-cleaving ribozyme

Variant	self-cleavage
G7A A59G U103C U120C U139C	0.18
A52G A91G U102C	2.12
U9A A33G U43A U49C	0.12
U9C A60G U131C	1.73
A33G A129U U131C	0.27
U2A U12A A33G U43C U97A A114G U139A	0.23
A56G A78U U108C	0.01
A13G A89G A117G	1.67
A89G A117G C121A	2.78
U9C U12C A23G A33U A63U G65U G79A U131C	0.29
U43C U70C A98G U103C	0.01
A11U U72C A82G U103C	0.01
A36G A47C A118G	0.76
A30U A60G A116G	0.55
A11G A18U A23G U122A	0.44
U43A A51U G83U A98U A116G	0.23
A23G A47U A68G A78U	0.33
C85U A91G A118G A129G	0.12
A60G G75C U108C U122A	0.01
U37C A47G A55U A94G	0.77
A56G U103C U122C	0.92
U97C A117G G136U	2.18
U3C U70C A86G A91G	0.06
A24G G53U A94G A135G	0.76

Variant	self-cleavage
A24C A62U A82G A114U	0.06
U2A A63G A82G A90G	0.45
A4G U9C A11U A22G A111G U131G	0.05
U19G A24G A36G A47G A95G U102C C109U	0.46
G7A U43C A47G U57G A90G	0.73
A30G A91G A96G U102C	1.44
U12C A63G A64C	1.41
A11G A54G U87C	1.03
U26C A91G A96G U132C	1.56
A68G U103C A116U A129U	0.01
A4G U19C U87C A94U A117G	1.14
A47U A64G A114G A129G	0.04
A30G A47G U124C A129G	0.08
U57C A63U U131C U133A	0.92
A22G A55G A96U U108C	0.02
C35U A59G A86U	0.78
A30G A78G U87C A89G A90G A116G	0.1
U12C G14A A126G	0.26
A18G U26C U43C A90G	1.42
U38A G79A A91G U133A	0.07
A30G A114U A117G U124C	0
A56G A82U A111G	0.01
A18G U49A A54G A82G A110G A111G U122A	0.04
A23G A52G A92G U124A	0.6

Variant	self-cleavage
A56C A67G U70A A126U U139C	0.42
G21A A22G A91G U102C A114G A140G	0.32
A86G A92G U100C	2.27
A18G A23G A55G A91G A94G	0.66
U19A U43C A64G C105U	0.05
A22G A52G G74A A92U	0.05
U19C U43C C113U	0.02
A52G A55G A56G U70C C76U A135U	0.1
A13G A27G A52G A89U U100C	2
A78G A86C A92G C101A U131A	0.02
A24G A64U A90G C105U	0.34
A52U C105A U122C A134G	0
C17A A62G A86G	1.36
A11G A91G U108C U139A	0.01
C6U A23G G53U C77U	0.99
A126G U127A G137A	2
U2C A67G U108C A118G	0.02
U39A A111G A117G	0.02
A66G U103A U108C	0
A33G A69G A94G	1.02
U12C A110G U131C A135U	0.13
U2C A23U A68U U72A G84U A116G	0.09
A56G A66G U124C	1.11
U2C A55G U103C	0.34

Variant	self-cleavage
U9C A33G U87C	0.37
A11U A51G A62G	1.18
U9C A86U A96G	1.87
A23G U26C A78C	0.12
U9C A36U A56G	1.18
U19A A111G A116G A126G	0
A56U U72C U108A	0.02
U9C A33G G41U U72C	0.11
A11U U12C A82G U100C	1.33
U49C A98G A111G	0
G7A A56G U100C	2.6
A62U A78C A90G	0.25
A11G U37C A60U	1.05
A22G A52G A67U U100C U130C	2.43
A11G G21U A51G U70C U131C	0.6
U43A A92G U108A A117G	0.01
U2C A22G U100C U108C U139C	0.03
A22G A33G U39A A68G	1.17
U43A A62U A78U C85U A89G U139C	0.29
U12A U39C U49C	0.98
U39A A56G A78U	0.18
U37C A51U A90U	0.98
A11G U49C A52G A54C	1.57
A5G A33U U108C	0

Variant	self-cleavage
A33G U37C A96G A116G	0.32
A11G A36G C85U	1.26
A60G U72C U127C	0.09
A78G A118G U132A	0.09
U2C U102A U130C	0.5
U12A A91G U131A	0.69
A69G U87C A111G U131C	0
A5G U39C A47G A56G A78G	0.21
U43C A52G A59U A66G A89G	1.25
A62G U100A A125U	0.33
A22U A30G U124C	0.89
A5C G44A U49C A125C	1.02
A5G A126G A135C	0.67
U9C A22U U49G A126G	1.05
U3C A5G G7A U37C A62C A67U A118G U130C	0.42
A24C A62G U108C C112U	0.01
A117G U122C U127C	0.79
A22G A52C A63G A94G A116G	1.2
U19C A59G U130A	0.75
A11G A78C U122A	0.13
U57C A66U U108C	0
A69G G75C A125G	0.03
A30G A54G A56G	1.06
A33G A51U A96G	1.19

Variant	self-cleavage
U19A A30G A59G A67G A117G U127C	1.04
A13G A82U A126G A140G	0.18
A51U A62G A67G	1.91
G41A A91G A110G	0.08
U39C A67G A111G A140G	0.02
A33G A98G U133C	0.49
G21A A22U U38C A52G A111G	0.01
A22G U122C U130C	0.55
A51G A59G A95G	0.51
A30G U49C A135G	1.31
U38C G83A U87C	1.92
A30G A66U A126U	0.96
A24G U38C A140G	1.84
U72G A91G A114G A140G	0.04
U97C A98G U131C	0.79
A66G A78G U132A	0.15
U19C A63U A69G U127G	1.93
A51G A86U U87C A89G	0.85
A91G A92G A110G	0.11
U3C U43A A86G	1.38
U2C A11U U131C	0.85
G75C U102C A116G	0.04
A23U A33G U57C A60G A68G A90C	0.17
A18U A51U A69G	0.79

Variant	self-cleavage
A23U U37C A89G C112U	0.02
U2C G29A A69C U70A U108C	0.07
U9C A86G A114G	0.81
U49G A62G A91U	0.82
G7U A11G U100C A125G	0.41
A33G U37C A116G	0.17
U43C A59G U87A U108C	0.03
A54G A60G C88A A118G	0.48
U43A A47G A51G A52C A59G A86G A135G	0.91
A54G A68G U102C	1.46
A5G U49C A60G A69G A118G	0.15
U12C A95G U108G	0.03
A5U U12C U37C U87A U97A	0.54
A33U U38C A55G U108C	0.02
A11G A51U U108A	0.08
U43C C45U A60G	1.15
A68G A82U U103C	0.23
A55G A78G G79U U103C U133C	0.05
A18U U26C U39C	1.17
U9G G28A U39C A78G	0.17
U37G A52G A60G	1.19
A18U A51G A60G G80C A95G	0.08
U39G A78U U127C	0.16

Reference: the RNAGym collection of RNA variant scans (doi:10.7554/elife.90254)
